Experimental data published in publication PMC6919601, “Identification of Plasmodium dipeptidyl aminopeptidase allosteric inhibitors by high throughput screening” (PLoS ONE, 2019).
The whole screen tested about 110,000 compounds, of which about 230 (0.21%) showed an effect of 50% or more. This is one part of the list.

Target: DPAP1 (Plasmodium falciparum, UniProt Q8IIJ9)
Experiment: primary screen, percent inhibition; read by cleavage of a fluorogenic dipeptide substrate; higher = more effect of the substance
Parameters: species or system P. falciparum D10 trophozoite lysates; single well
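Further: 30 min substrate incubation versus DMSO and 10 µM JCP410 controls.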

Sequence of DPAP1 (Q8IIJ9 whole entry, looked up): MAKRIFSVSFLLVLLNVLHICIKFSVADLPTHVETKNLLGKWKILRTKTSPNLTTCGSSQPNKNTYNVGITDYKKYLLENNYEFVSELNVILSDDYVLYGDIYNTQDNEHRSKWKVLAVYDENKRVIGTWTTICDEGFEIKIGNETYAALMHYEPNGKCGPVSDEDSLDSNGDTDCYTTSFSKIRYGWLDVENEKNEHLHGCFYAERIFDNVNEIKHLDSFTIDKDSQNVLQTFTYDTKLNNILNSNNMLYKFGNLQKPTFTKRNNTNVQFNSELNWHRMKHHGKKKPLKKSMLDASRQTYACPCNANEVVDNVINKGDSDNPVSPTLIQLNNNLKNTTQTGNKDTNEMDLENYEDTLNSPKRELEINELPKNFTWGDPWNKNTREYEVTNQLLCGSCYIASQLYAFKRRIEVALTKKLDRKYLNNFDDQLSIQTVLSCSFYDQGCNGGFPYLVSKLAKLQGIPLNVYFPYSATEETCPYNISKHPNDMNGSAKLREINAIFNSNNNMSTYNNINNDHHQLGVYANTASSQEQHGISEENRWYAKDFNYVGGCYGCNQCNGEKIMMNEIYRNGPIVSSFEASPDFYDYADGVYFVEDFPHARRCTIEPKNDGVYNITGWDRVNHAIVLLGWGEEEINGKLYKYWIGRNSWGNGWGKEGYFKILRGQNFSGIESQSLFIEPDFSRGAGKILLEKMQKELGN

SMILES | % Inhibition @ 10 uM [%]
COc1ccc(C(=O)NCC(=O)NCC(=O)O)cc1 | -2.98
COc1cc(/C=C2/C(=O)ON=C2C)ccc1OCc1ccc(C)cc1 | 4.54
COc1ccccc1N1CCN(S(=O)(=O)c2ccccc2C(F)(F)F)CC1 | -4.82
O=C1c2cccc3c(Cl)ccc(c23)C(=O)N1Cc1ccncc1 | -0.63
CC(C)CN1C(=O)C(NC(=O)CCc2ccccc2)(C(F)(F)F)C2=C1CC(C)(C)CC2=O (centres unmarked) | -1.52
CCn1c2ccc(OC)cc2c2nnc(S)nc21 | 79.3
COc1cccc(C2c3cc(OC)c(OC)c(OC)c3CCN2C(=O)C(F)(F)F)c1 (centres unmarked) | -7.32
Cc1ccccc1OCCc1c(C)nc(S)nc1O | 2.57
O=C(Nc1ccc(Br)cc1)c1cccc(S(=O)(=O)Nc2ccc(Br)cc2)c1 | 4.82
CCOC(=O)/C=C(\C)N1N=C(c2ccccc2)CC1/C=C/c1ccccc1 (centres unmarked) | 3.98
CN1C(=O)c2ccccc2C(C(=O)NCCC2=CCCCC2)C1c1c[nH]c2ccccc12 (centres unmarked) | 1.81
CCOc1ccc(-n2c(C)nc3cc(C(=O)NCc4ccc5c(c4)OCO5)ccc32)cc1 | 5.85
COc1ccc(CNCCc2ccccc2)cc1OC | 0.909
CCCN1C/C(=C/c2ccc3c(c2)OCO3)C(=O)/C(=C/c2ccc3c(c2)OCO3)C1 | 22.7
CC1(C)CC(CCN)(c2ccc(F)cc2)CCO1 (centres unmarked) | -2.55
CC1=C/C(=N\OC(=O)c2cccc(Cl)c2)C=CC1=O | 6.51
CC(C)CCNC(=O)COc1ccccc1 | -5.34
Cc1ccc(S(=O)(=O)Nc2cccc(C(=O)N3CCOCC3)c2)cc1 | -1.17
Cn1c(=O)c2c(nc3n(CCO)c(-c4ccc(Br)cc4)cn23)n(C)c1=O | -3.63
Cc1ccc(CNC(=O)C2CCN(c3nnc(C)c4c(C)n(-c5ccccc5)nc34)CC2)o1 | 11
CCOc1ccccc1CNS(=O)(=O)c1c[nH]cn1 | -8.06
Cc1cc(C)nc(Nc2nc(N)c3ccccc3n2)n1 | -21.8
CC(=O)N/C(=C\c1ccccc1)C(=O)Nc1cc(C)cc(C)c1 | -9.87
O=C(Nc1c(C(=O)N2CCCCC2)cnn1-c1ccccc1)c1ccc(Br)cc1 | -7.62
O=C1N=C(N2CCN(C3=NC(=O)/C(=C\c4cccc(O)c4)S3)CC2)S/C1=C\c1cccc(O)c1 | 6

SMILES | % Inhibition @ 10 uM [%]
CC(C)(C)C1CCC(NCCCN2CCOCC2)CC1 (centres unmarked) | -3.74
COc1ccc(-c2[nH]nc(C)c2-c2ccccc2)c(O)c1 | 13.3
Cn1c2ccccc2c2nc3ccc([N+](=O)[O-])cc3cc21 | 1.24
CCCc1c(C)c2ccc(OCc3ccc(F)cc3)cc2oc1=O | -0.436
Cc1occc1-c1nnc(-c2ccc([N+](=O)[O-])cc2)o1 | -1.99
COc1ccc(-c2onc(C)c2C)cc1S(=O)(=O)NCc1ccccn1 | -4.32
CC(C)CNc1nc2c(c(=O)n(Cc3ccc(Cl)cc3Cl)c(=O)n2C)n1C | -1.47
Cc1ccc(Cc2nnc(C(=O)NCCC3=CCCCC3)o2)cc1 | 2
COc1ccc(/C=C2\CCc3ccc(OC)cc3C2=O)cc1 | -0.736
COc1ccc(Br)cc1CNC(=O)c1ccc2[nH]c(C)c(C)c2c1 | -2.28
CC(=O)Nc1nc(C)c(-c2csc(Nc3ccc(S(N)(=O)=O)cc3)n2)s1 | -4.89
Cc1nc(N2CCc3ccccc3C2)nc(O)c1CCC(C)C | 5.3
CC(=O)N1N=C(c2ccc(N(C)C)cc2)CC1c1ccccc1 (centres unmarked) | 1.34
Cc1ccc(C(=O)c2cn(CC(N)=O)c3nc(C)ccc3c2=O)cc1 | -0.436
Cc1ccc(/C=C2\S/C(=N/c3ccc(C(=O)O)cc3)N(C)C2=O)cc1 | -5.82
COc1ccc(S(=O)(=O)NCc2ccc(C(=O)N3CCN(c4ccccn4)CC3)cc2)cc1 | 1.9
O=C(O)CSC12CC3CC(C1)CC(C(=O)O)(C3)C2 | -4.24
CSc1ncc(F)c(=O)n1Cc1ccccc1 | -1.18
C=CCNC(=O)c1ccccc1NC(=O)CN(c1ccc(Cl)c(Cl)c1)S(C)(=O)=O | -0.795
N#Cc1ccc2c(c1)nc1c3cccc4cccc(c(=O)n21)c43 | -5.78
Cc1onc(-c2ccccc2Cl)c1C(=O)NCc1nc(-c2ccccc2)no1 | -4.82
O=C(NC1CCN(Cc2ccccc2)CC1)C1CCC(Cn2c(=O)[nH]c3ccsc3c2=O)CC1 (centres unmarked) | 1.23
CCCNC(c1ccccc1)c1ccncc1 (centres unmarked) | -0.192
CCN(Cc1ccccc1)C(=O)c1ccc(CS(=O)c2ccccc2C)o1 (centres unmarked) | 0.124
Cc1ccc(C(=O)Nc2ccc(NC(=O)c3ccccc3)cc2)cc1 | 1.96
